Assay results as given in the supplement of paper PMC12217912.
The list shows a part of the results. The full chains were built here from the parent and the listed change. Values near 0.05 are background.

B1: TEV protease; numbered along this chain (parent)
chain: MGESLFKGPRDYNPISSSICHLTNESDGHTTSLYGIGFGPFIITNKHLFRRNNGTLVVQSLHGVFKVKDTTTLQQHLVDGRDMIIIRMPKDFPPFPQKLKFREPQREERICLVTTNFQTKSMSSMVSDTSCTFPSGDGIFWKHWIQTKDGQCGSPLVSTRDGFIVGIHSASNFTNTNNYFTSVPKNFMELLTNQEAQQWVSGWRLNADSVLWGGHKVFMVKPEEPFQPVKEATQL

Variants of: B1
Assay: raw area under fraction-flipped curve 0-4 h after induction (AUC4h, not background-subtracted), DNA-recorder readout of cleavage of the substrate (dimensionless); higher = more cleavage of the substrate by the protease variant
Settings: temperature: 34 °C; time window: 0-4 h after rhamnose induction
Protocol: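 In vivo DNA recorder in E. coli TOP10(DE3) ΔrhaA at 34 °C. Each TEVp single-site mutant (parent TEVp 0) is paired with a single-site variant of the 7-mer TEVs (canonical ENLYFQ|S). The substrate sits between flexible linkers in a Bxb1-sfGFP-TEVs-SsrA fusion, so cleavage stabilises Bxb1 and speeds flipping of a recombination array, read by NGS. The value is the raw area under the fraction-flipped curve over 0-4 h after rhamnose induction (AUC4h), with ≥20 reads per time point. It is not background-subtracted; inactive controls average about 0.047.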
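Further: Bxb1 expression induced with 0.2% (w/v) L-rhamnose at OD600 near 0.5, cultures sampled hourly, flipped fraction per protease–substrate barcode pair counted by paired-end Illumina sequencing.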

Variant | area with substrate ENAYFQS | area with substrate ENCYFQS | area with substrate ENDYFQS | area with substrate ENGYFQS | area with substrate ENHYFQS | area with substrate ENKYFQS | area with substrate ENMYFQS | area with substrate ENNYFQS | area with substrate ENPYFQS | area with substrate ENQYFQS | area with substrate ENSYFQS | area with substrate ENVYFQS | area with substrate ENEYFQS | area with substrate ENFYFQS | area with substrate ENRYFQS | area with substrate ENTYFQS | area with substrate ENWYFQS | area with substrate ENYYFQS | area with substrate ENIYFQS
L112M | 0.0693 | 0.0697 | 0.0714 | 0.0968 | 0.0609 | 0.07 | 0.0825 | 0.0574 | 0.0484 | 0.0727 | 0.0586 | 0.0836 | – | – | – | – | – | – | –
T115M | 0.0517 | 0.0585 | 0.0583 | 0.0676 | 0.0505 | – | 0.0911 | 0.0663 | 0.0617 | 0.0683 | 0.085 | 0.0774 | 0.0634 | 0.0613 | 0.0528 | 0.0517 | 0.0568 | 0.064 | –
T115G | 0.0758 | 0.0654 | – | 0.0583 | – | – | – | – | – | 0.0609 | – | 0.0593 | 0.0643 | – | – | 0.0679 | – | – | –
S123W | 0.0611 | 0.0657 | 0.0604 | 0.0435 | 0.0563 | 0.0571 | 0.1 | 0.0547 | 0.0561 | 0.0595 | 0.0571 | 0.0834 | 0.0535 | 0.0583 | 0.0551 | 0.0697 | 0.0533 | 0.0581 | 0.0896
S127T | 0.0681 | – | 0.0514 | 0.0603 | 0.0301 | 0.0629 | 0.0975 | 0.0539 | – | 0.0562 | 0.0716 | 0.0855 | 0.0574 | – | 0.0619 | 0.0758 | 0.059 | 0.0471 | 0.102
D128Q | 0.0501 | 0.074 | 0.0639 | 0.0502 | 0.0682 | 0.0648 | 0.0991 | 0.0525 | 0.0577 | 0.0654 | 0.0599 | 0.102 | – | 0.0587 | 0.0361 | – | 0.053 | 0.0529 | 0.137
T114H | 0.0574 | 0.0717 | 0.0669 | – | – | – | – | – | – | – | 0.0526 | 0.0746 | – | 0.0597 | 0.0563 | – | 0.0009 | – | –
S124K | 0.0643 | 0.061 | 0.0615 | 0.0643 | 0.0614 | – | 0.0914 | 0.0644 | – | 0.0605 | 0.057 | 0.0796 | 0.116 | 0.0689 | 0.0583 | 0.0691 | 0.0586 | 0.0644 | 0.11
V126T | 0.0696 | 0.0706 | 0.0781 | – | – | 0.0779 | – | – | – | 0.0643 | 0.0604 | 0.0841 | – | – | – | 0.0673 | 0.0348 | – | –
T132D | 0.0548 | 0.0515 | 0.0542 | 0.0519 | 0.0501 | 0.0614 | 0.0642 | 0.0596 | 0.0366 | 0.0605 | 0.0525 | 0.0524 | 0.0596 | 0.0551 | 0.0555 | – | – | 0.0506 | –
T132M | 0.0593 | 0.0532 | 0.0527 | 0.0712 | 0.0522 | – | 0.0783 | 0.0613 | 0.0625 | 0.0705 | 0.058 | – | 0.058 | 0.0455 | 0.054 | 0.0696 | – | 0.0628 | 0.124
S121T | 0.0577 | – | 0.0621 | 0.0413 | – | – | – | – | 0.0385 | – | – | 0.101 | – | 0.0794 | 0.059 | – | – | – | –
S121Q | 0.0702 | 0.0594 | 0.0594 | 0.0604 | 0.0466 | 0.0387 | – | 0.0459 | – | 0.0407 | 0.0605 | 0.0638 | 0.057 | – | 0.055 | – | 0.0357 | 0.0607 | 0.132
